Laboratory results: the supplement of paper PMC4604168 (melanoma cell lines)
The other results are listed elsewhere or left out. Most values come without repeats; read them as rough.

Columns and labels:
Assay in all cases: cell count relative to DMSO control; melanoma cells; higher = more viable cells
Conditions in all cases: library dose: low library concentration; 72 h
MZ2-MEL = test system: MZ2-MEL
MeWo = test system: MeWo
RPMI7951 = test system: RPMI7951
RVH-421 = test system: RVH-421
SkMel28 = test system: SkMel28
SkMel2 = test system: SkMel2
SkMel30 = test system: SkMel30
SkMel5 = test system: SkMel5
UACC257 = test system: UACC257
UACC62 = test system: UACC62
WM115 = test system: WM115
WM1716 = test system: WM1716
WM1745 = test system: WM1745
WM3526 = test system: WM3526
WM3619 = test system: WM3619
WM451Lu = test system: WM451Lu
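Also: cell number obtained by counting DAPI-stained nuclei in high-throughput microscope images with image analysis software, screen run in 1,536-well plates.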

Compound | cell count (MZ2-MEL) | cell count (MeWo) | cell count (RPMI7951) | cell count (RVH-421) | cell count (SkMel28) | cell count (SkMel2) | cell count (SkMel30) | cell count (SkMel5) | cell count (UACC257) | cell count (UACC62) | cell count (WM115) | cell count (WM1716) | cell count (WM1745) | cell count (WM3526) | cell count (WM3619) | cell count (WM451Lu)
C[C@@H](Oc1cc(-c2cnn(C3CCNCC3)c2)cnc1N)c1c(Cl)ccc(F)c1Cl [Crizotinib] + O=C(Oc1ccc([N+](=O)[O-])cc1)N1CCC(C(O)(c2ccc3c(c2)OCO3)c2ccc3c(c2)OCO3)CC1 [JZL184] (first compound 0.2 µM, partner dose 1 µM) | 103% | 99.3% | 90.7% | 98.8% | 102% | 103% | 117% | 100% | 87% | 85.8% | 93.8% | 94.8% | 112% | 93.4% | 117% | 98.5%
Cc1ccc(Nc2nccc(N(C)c3ccc4c(C)n(C)nc4c3)n2)cc1S(N)(=O)=O [Pazopanib] + O=C(Oc1ccc([N+](=O)[O-])cc1)N1CCC(C(O)(c2ccc3c(c2)OCO3)c2ccc3c(c2)OCO3)CC1 [JZL184] (first compound 0.4 µM, partner dose 1 µM) | 89% | 113% | 98.4% | 108% | 88.5% | 96% | 81.1% | 83.8% | 98.5% | 105% | 110% | 101% | 87.5% | 79.4% | 97.6% | 84%
Cc1cc(Nc2cc(N3CCN(C)CC3)nc(/C=C/c3ccccc3)n2)n[nH]1 + O=C(Oc1ccc([N+](=O)[O-])cc1)N1CCC(C(O)(c2ccc3c(c2)OCO3)c2ccc3c(c2)OCO3)CC1 [JZL184] (first compound 0.04 µM, partner dose 1 µM) | 106% | 107% | 90.2% | 96.3% | 90.8% | 91.2% | 84.7% | 104% | 118% | 114% | 77.9% | 96.8% | 84.1% | 102% | 131% | 98.6%
Cn1cnc2c(F)c(Nc3ccc(Br)cc3Cl)c(C(=O)NOCCO)cc21 [selumetinib] + C/C(O)=C(\C#N)C(=O)Nc1cc(Br)ccc1Br [LFM-A13] (first compound 0.015 µM, partner dose 2 µM) | 94.2% | 93.8% | 111% | 83.7% | 75.2% | 80.1% | 75.8% | 103% | 84.6% | 59% | 88.8% | 114% | 92.1% | 57.7% | 82% | 84.2%
CC[C@]1(O)C[C@H]2CN(CCc3c([nH]c4ccccc34)[C@@](C(=O)OC)(c3cc4c(cc3OC)N(C=O)[C@H]3[C@@](O)(C(=O)OC)[C@H](OC(C)=O)[C@]5(CC)C=CCN6CC[C@]43[C@@H]65)C2)C1 [vincristine] + Cc1cc(SCc2sc(-c3ccc(C(F)(F)F)c(F)c3)nc2C)ccc1OCC(=O)O [GW0742] (first compound 0.0001 µM, partner dose 2 µM) | 103% | 103% | 73.1% | 162% | 86.9% | 92.1% | 70.6% | 85.4% | 73.9% | 69.3% | 62.3% | 48.8% | 85.4% | 85.5% | 58.5% | 65.1%
C=CCNC1=C2C[C@@H](C)C[C@H](OC)[C@H](O)[C@@H](C)/C=C(\C)[C@H](OC(N)=O)[C@@H](OC)/C=C\C=C(/C)C(=O)NC(=CC1=O)C2=O [Tanespimycin] + O=C(Oc1ccc([N+](=O)[O-])cc1)N1CCC(C(O)(c2ccc3c(c2)OCO3)c2ccc3c(c2)OCO3)CC1 [JZL184] (first compound 0.002 µM, partner dose 1 µM) | 102% | 96.9% | 96.6% | 101% | 91.5% | 96.3% | 106% | 93.8% | 117% | 88.8% | 91.6% | 96.9% | 91.3% | 87.7% | 94.8% | 102%
CN(c1ncccc1CNc1nc(Nc2ccc3c(c2)CC(=O)N3)ncc1C(F)(F)F)S(C)(=O)=O + O=C(Oc1ccc([N+](=O)[O-])cc1)N1CCC(C(O)(c2ccc3c(c2)OCO3)c2ccc3c(c2)OCO3)CC1 [JZL184] (first compound 0.08 µM, partner dose 1 µM) | 86.7% | 95.6% | 63.8% | 108% | 73.4% | 83.6% | 108% | 70.8% | 66.7% | 77.4% | 81.6% | 77.4% | 85% | 75.9% | 97.3% | 30.8%
COc1ccc(C2=N[C@@H](c3ccc(Cl)cc3)[C@@H](c3ccc(Cl)cc3)N2C(=O)N2CCNC(=O)C2)c(OC(C)C)c1 [Nutlin-3] + Cc1cc(SCc2sc(-c3ccc(C(F)(F)F)c(F)c3)nc2C)ccc1OCC(=O)O [GW0742] (first compound 0.1 µM, partner dose 2 µM) | 98.9% | 99.4% | 98.5% | 103% | 89.6% | 93% | 82.9% | 92.3% | 101% | 97.3% | 94.3% | 83.9% | 93.7% | 94.8% | 117% | 97.3%
CC(=O)O[C@@]12CO[C@@H]1C[C@H](O)[C@@]1(C)C(=O)[C@H](O)C3=C(C)[C@@H](OC(=O)[C@H](O)[C@@H](NC(=O)OC(C)(C)C)c4ccccc4)C[C@@](O)([C@@H](OC(=O)c4ccccc4)[C@H]21)C3(C)C [Docetaxel] + O=C(Oc1ccc([N+](=O)[O-])cc1)N1CCC(C(O)(c2ccc3c(c2)OCO3)c2ccc3c(c2)OCO3)CC1 [JZL184] (first compound 0.0001 µM, partner dose 1 µM) | 46.7% | 37.9% | 32.6% | 75% | 39.1% | 40.3% | 37% | 83.5% | 37.7% | 38.8% | 55.9% | 33.6% | 46.5% | 41.8% | 52.3% | 63.6%
